In the supplement of paper PMC3334620:
Over roughly 33,000 sequences, “E-score (-0.5 to 0.5)” has its median near -0.035; the highest 2% begin near 0.35. The list shows a part of the results.

target: T1, Pdr3 (UniProt P33200); assay: PBM E-score (8-mer binding enrichment) (E-score (-0.5 to 0.5)); higher = stronger / more preferred TF binding; most listed sequences are background and not binding sites; conditions: protein concentration: 200 nM; construct: GST-full length
T1 sequence: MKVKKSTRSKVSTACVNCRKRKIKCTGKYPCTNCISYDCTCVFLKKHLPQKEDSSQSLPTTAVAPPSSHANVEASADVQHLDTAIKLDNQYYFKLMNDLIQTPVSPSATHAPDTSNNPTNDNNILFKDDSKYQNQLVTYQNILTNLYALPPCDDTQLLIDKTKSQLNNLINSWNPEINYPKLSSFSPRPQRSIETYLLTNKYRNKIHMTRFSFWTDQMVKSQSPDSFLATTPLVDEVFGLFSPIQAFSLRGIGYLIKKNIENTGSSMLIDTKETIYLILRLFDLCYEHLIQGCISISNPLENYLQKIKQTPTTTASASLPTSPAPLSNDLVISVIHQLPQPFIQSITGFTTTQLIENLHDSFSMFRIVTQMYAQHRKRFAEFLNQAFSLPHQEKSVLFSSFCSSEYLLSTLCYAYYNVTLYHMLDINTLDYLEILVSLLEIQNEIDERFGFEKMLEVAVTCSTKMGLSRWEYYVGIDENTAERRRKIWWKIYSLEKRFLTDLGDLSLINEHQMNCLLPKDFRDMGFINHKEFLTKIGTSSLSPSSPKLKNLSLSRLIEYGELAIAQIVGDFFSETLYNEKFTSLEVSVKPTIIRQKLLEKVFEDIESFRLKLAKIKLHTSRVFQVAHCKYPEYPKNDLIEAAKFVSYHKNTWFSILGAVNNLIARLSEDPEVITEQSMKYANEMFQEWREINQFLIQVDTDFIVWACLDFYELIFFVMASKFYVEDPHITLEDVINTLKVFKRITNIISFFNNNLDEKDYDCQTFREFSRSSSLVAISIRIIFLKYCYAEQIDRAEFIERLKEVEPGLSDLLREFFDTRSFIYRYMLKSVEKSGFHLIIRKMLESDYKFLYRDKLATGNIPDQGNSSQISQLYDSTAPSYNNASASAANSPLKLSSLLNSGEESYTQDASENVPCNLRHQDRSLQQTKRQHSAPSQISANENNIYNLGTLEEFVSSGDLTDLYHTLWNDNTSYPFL
Procedure, shortened: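 Yeast transcription factors carrying a GST tag, as full-length proteins or DNA-binding domains, were produced by PURExpress in vitro transcription/translation. About 100-200 nM protein was applied to universal all-10-mer Agilent arrays, double-stranded by primer extension on fresh or once-stripped slides. Bound protein was detected with fluorescent anti-GST, and scans were normalised with masliner. The Universal PBM Analysis Suite gave each ungapped eight-base word, pooled with its reverse complement, an E-score, a modified Wilcoxon-Mann-Whitney statistic.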

Row | Sequence | PBM E-score
1 | ACCAGTAG | -0.112
2 | ATTGGCGA | -0.2
3 | GTTTAGGA | -0.241
4 | AAAATACC | 0.0769
5 | AAGACCCC | -0.122
6 | TAATGGAA | 0.0941
7 | CGAATCAC | 0.00478
8 | ACTCACCA | -0.0208
9 | ACGCTGAG | -0.132
10 | CTAAGAGC | -0.156
11 | AACCTCGA | 0.0787
12 | GTGTTCTA | 0.0677
13 | ACGGCGTA | -0.211
14 | ATTTGAGA | -0.166
15 | AAGGAACC | 0.217
16 | AAAAGTAT | 0.0448
17 | AATCAACC | 0.042
18 | AGAAGTGC | -0.137
19 | AGCAAGCT | -0.247
20 | GACTAAGA | -0.157
21 | AAGACGTA | -0.0491
22 | AAGCGGAT | 0.309
23 | ATGAGGTA | -0.18
24 | TCCGCACA | 0.259

Row | Sequence | PBM E-score
25 | ATAAAAAA | 0.0103
26 | CGTGGCGA | 0.0774
27 | GGGTACTA | 0.0336
28 | AACGTTAG | -0.0863
29 | CACTCCTA | -0.112
30 | CTAAATTC | 0.0203
31 | CGGTTCAC | -0.038
32 | CTTCTAAA | -0.25
33 | TAGACTGA | -0.252
34 | CGATCCAG | -0.0138
35 | GTTCGGCA | 0.054
36 | ATCAGTTA | -0.0345
37 | CTTTTCTA | -0.229
38 | ACGATGAT | -0.158
39 | AGGTGGAT | -0.223
40 | AGTAGTGC | 0.115
41 | GCCTAAAC | -0.193
42 | ATGGCCGA | 0.152
43 | GGCGGCAA | 0.168
44 | TCGGGTAA | 0.0953
45 | CGGCCTGC | 0.07
46 | AGCGCGTG | -0.094
47 | GCGGAGAC | 0.336
48 | ATTCCACG | 0.155

Row | Sequence | PBM E-score
49 | TGACACCA | -0.193
50 | CGGAAGCC | 0.416
51 | GCAACATA | -0.216
52 | AGTGGCGA | -0.0624
53 | GTGTCTGA | -0.0386
54 | GCGAAGAA | -0.00855
55 | GTGTCCTA | 0.0921
56 | CCACCTCC | -0.0783
57 | ACTTCCGA | 0.355
58 | CGTTCAGC | -0.00419
59 | GAATACGC | 0.064
60 | ACCGTCAA | -0.00477
61 | AGGCCCAC | -0.285
62 | AAGCCGAC | 0.0308
63 | AACTTGGA | -0.0529
64 | GGGATGAC | 0.137
65 | CGTCATAG | -0.0576
66 | GAACATAA | -0.00765
67 | TCACCGCA | -0.163
68 | CCAGCTGG | 0.0442
69 | AACCGCGA | 0.277
70 | AGGGCGAC | -0.011
71 | CCTGCGAG | -0.0349
72 | GCTAGACA | -0.0898

Row | Sequence | PBM E-score
73 | GGATAGAA | 0.0776
74 | CGGCTGTA | 0.0401
75 | CTCCTGAA | -0.0454
76 | AACCGAAG | 0.0751
77 | AGACGTAA | -0.221
78 | AAGATACC | 0.181
79 | GCCCTGCA | -0.0309
80 | CGGTTACA | 0.196
81 | CATTACCC | 0.112
82 | CGTGATAG | -0.0638
83 | CATCGCCC | -0.00877
84 | CTAAACTA | -0.14
85 | CGCCCAAG | -0.143
86 | TCGAATAA | -0.151
87 | CCAGACAC | -0.104
88 | CTCGGTCC | 0.112
89 | AAGGGCGT | -0.102
90 | AGGTAACG | -0.00723
91 | CATTTTCG | 0.0924
92 | CACTCTCG | -0.00555
93 | ACAGGCTA | -0.251
94 | TGATTAAA | -0.00687
